# Reference: paper PMC4336329 (PLoS ONE, 2015)
# In all, about 310,000 compounds went through this assay and about 2,200 (0.71%) showed an effect of 50% or more. Effects have a minus sign here. This is one part of the list.
# Molecular target: human ether-à-go-go-related gene (hERG) potassium channel (human, UniProt Q12809)
# Test: primary screen, population patch clamp on CHO cells stably expressing hERG
# Chain of human ether-à-go-go-related gene (hERG) potassium channel (Q12809 whole entry, looked up): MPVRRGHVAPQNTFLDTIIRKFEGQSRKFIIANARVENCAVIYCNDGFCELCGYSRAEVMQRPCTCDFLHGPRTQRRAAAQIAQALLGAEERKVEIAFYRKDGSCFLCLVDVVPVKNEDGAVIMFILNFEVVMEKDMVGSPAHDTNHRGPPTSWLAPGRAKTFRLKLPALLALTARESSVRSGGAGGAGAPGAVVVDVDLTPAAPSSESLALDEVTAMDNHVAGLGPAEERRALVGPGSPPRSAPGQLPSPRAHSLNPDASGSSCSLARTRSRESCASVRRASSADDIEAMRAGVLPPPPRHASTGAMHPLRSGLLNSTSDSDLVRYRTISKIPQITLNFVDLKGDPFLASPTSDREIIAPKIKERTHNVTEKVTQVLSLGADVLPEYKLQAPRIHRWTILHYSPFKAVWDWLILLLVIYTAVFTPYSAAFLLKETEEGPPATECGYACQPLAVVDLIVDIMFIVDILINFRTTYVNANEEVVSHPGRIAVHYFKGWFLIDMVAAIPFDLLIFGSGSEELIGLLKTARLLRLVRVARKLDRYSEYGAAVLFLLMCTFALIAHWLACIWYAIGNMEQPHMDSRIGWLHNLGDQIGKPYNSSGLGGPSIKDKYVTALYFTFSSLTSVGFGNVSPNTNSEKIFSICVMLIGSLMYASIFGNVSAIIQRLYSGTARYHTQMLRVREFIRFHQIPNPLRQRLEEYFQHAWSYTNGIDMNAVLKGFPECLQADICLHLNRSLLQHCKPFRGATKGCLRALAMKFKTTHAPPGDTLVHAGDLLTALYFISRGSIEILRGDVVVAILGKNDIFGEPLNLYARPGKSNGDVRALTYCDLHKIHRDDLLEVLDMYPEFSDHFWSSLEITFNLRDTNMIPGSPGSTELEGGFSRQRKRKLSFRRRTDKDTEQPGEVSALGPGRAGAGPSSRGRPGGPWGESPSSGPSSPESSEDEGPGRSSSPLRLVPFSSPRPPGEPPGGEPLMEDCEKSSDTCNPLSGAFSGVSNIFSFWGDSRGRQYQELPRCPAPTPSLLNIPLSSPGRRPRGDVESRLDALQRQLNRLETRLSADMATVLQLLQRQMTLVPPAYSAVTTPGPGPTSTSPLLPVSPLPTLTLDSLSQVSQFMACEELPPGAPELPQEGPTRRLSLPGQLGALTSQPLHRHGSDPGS
row,SMILES,"hERG current change (%, negative = inhibition) at 1uM [%]"
1,O=C(/C=C/c1ccc(-c2ccccc2[N+](=O)[O-])o1)c1ccco1,22.3
2,CCOC(=O)c1cc(C)n(-c2ccc(Cl)cc2)c1C,7.88
3,Cc1ccc(Nc2nnc(SCC(=O)Nc3ncc(S(=O)(=O)c4ccc([N+](=O)[O-])cc4)s3)s2)cc1,1.76
4,O=S(=O)(c1ccc2c(c1)OCCO2)N(Cc1ccc(F)cc1)Cc1nnc(-c2cccs2)o1,8.04
5,COC(=O)c1c(C)[nH]c(C(=O)CN(C)CC(=O)Nc2cccc(F)c2)c1C,1.72
6,CC(=O)N1CCc2cc(S(=O)(=O)NC(C)c3ccccc3)ccc21 (stereo not shown),10.5
7,O=C(CSc1nc2ccccc2[nH]1)c1cccs1,3.62
8,COc1ccc(OC)c(/C=N/n2c(C)nc3ccccc3c2=O)c1,11.6
9,COc1ccc(-c2c(C)c3ccc(O)cc3oc2=O)cc1OC,16.3
10,CCN(CCn1cccn1)C(=O)C1CCC(=O)N(CCc2cccc(F)c2)C1 (stereo not shown),13.6
11,CC(C)CCn1c(N)c(C(=O)OCC2CCCO2)c2nc3ccccc3nc21 (stereo not shown),-1.73
12,O=C(O)CCCNC(=O)c1ccc(NC(=O)Cc2ccc(Cl)cc2)cc1,13.9
13,COc1ccc(CN2CCN(Cc3ccc(OC)c(OC)c3OC)CC2)cc1.O=C(O)C(=O)O,-11.5
14,CC1(C)NC(=O)N(CC(=O)O)C1=O,8.5
15,CC(=O)/C(=N/Nc1ccccc1)Sc1nnc(C(O)c2ccccc2)n1-c1ccccc1 (stereo not shown),0.944
16,Cc1ccc(-c2nnn(CC(=O)N(c3ccccc3)C(C(=O)NCC3CCCO3)c3ccc(F)cc3)n2)o1 (stereo not shown),16.7
17,O=C(c1ccco1)N1CCN(C(=O)c2cc(-c3ccncc3)nc3ccc(Br)cc23)CC1,-33.4
18,CCN(Cc1ccccc1)C(=O)COC(=O)CNC(=O)c1ccc(C)s1,12.2
19,Cc1ccc(-c2nnc(Nc3cccc(O)c3)c3ccccc23)cc1S(=O)(=O)NCCO,5.32
20,O=C(NCCc1ccccc1)C(=O)Nc1nccs1,-1.13
21,Clc1ccc(-c2csc3ncnc(NCCN4CCOCC4)c23)cc1,-2.51
22,CN/C=C1\C(=O)C(C)(C)Oc2ccc3ccc(=O)oc3c21,15.8

row,SMILES,"hERG current change (%, negative = inhibition) at 1uM [%]"
1,Cc1ccsc1-c1nc(CSCC(=O)N2CCN(c3ccccc3)CC2)c(C)o1,9.72
2,CCc1c(C)nc(SCC(N)=O)c(C#N)c1C,-0.152
3,CCOC(=O)N1CCN(C(=O)c2ccc3c(c2)NC(=O)/C(=C\c2cccc(C)c2)S3)CC1,-0.445
4,O=C(NCCCc1ccccc1)c1c(O)nc2sccn2c1=O,5.52
5,NC(=O)c1c(NC(=O)C2c3ccccc3Oc3ccccc32)sc2c1CCCCC2,19
6,CN(Cc1nc2ccccc2[nH]1)Cc1nc(CC2CC2)no1,3.11
7,COc1ccccc1/C=N/N1C(=O)C(CC(=O)Nc2ccc([N+](=O)[O-])cc2OC)SC1=Nc1cccc(C)c1C (stereo not shown),10.7
8,CCc1c(C)nc(SCC(=O)N2CCCCC2C)[nH]c1=O (stereo not shown),10.6
9,COCCN(C(=O)c1ccccc1OC)c1nnc(C)s1,7.48
10,CC(=O)Nc1ccc(S(=O)(=O)N2CCN(C(=O)Cc3ccccc3)CC2)cc1,3.3
11,O=C(NCCCn1ccnc1)/C(=C\c1cccs1)NC(=O)c1ccco1,-5.24
12,COc1ccc(OC2CCN(S(=O)(=O)c3ccc(OC)cc3)CC2)cc1,12
13,CC(CNC(=O)Cn1ccc(NC(=O)OCc2ccccc2)nc1=O)c1ccccc1 (stereo not shown),7.22
14,COc1ccc(CC(=O)Nc2nnc(-c3cccc([N+](=O)[O-])c3)s2)cc1,9.09
15,O=C(Nc1nc(-c2cccc3ccccc23)cs1)c1ccc2c(c1)S(=O)(=O)c1ccccc1C2=O,15
16,NNC(=O)c1csc(-c2ccccc2)n1,19.6
17,CCOC(=O)c1c(NC(=O)CCN2CCOCC2)sc(C)c1-c1ccccc1,16.3
18,Cn1c2ccccc2c2cc(C(=O)O)ccc21,8.56
19,O=C(O)CSCc1nc2ccccc2s1,11.4
20,O=C(NC1CCCC1)C(c1cccs1)N(C(=O)c1ccco1)c1ccc2c(c1)OCO2 (stereo not shown),11.1
21,COc1ccc(-c2nnn(CC(=O)Nc3sc4c(c3C#N)CCCC4)n2)cc1,13.7
22,Nc1c(C(=O)O)cnc2nc(N3CCOCC3)nn12,16.6

row,SMILES,"hERG current change (%, negative = inhibition) at 1uM [%]"
1,CCOC(=O)C1=C(COC(=O)/C=C/c2ccccc2)NC(=O)NC1C (stereo not shown),4.52
2,Cc1ccccc1CS(=O)(=O)CCC(=O)NCCCN1CCOCC1,6.53
3,O=C(NC12CC3CC(CC(C3)C1)C2)N1CCN(c2ccccn2)CC1,12.7
4,CCc1nnc(NS(=O)(=O)c2ccc(NC(=O)c3cc(Cl)ccc3Cl)cc2)s1,14
5,COc1ccc2ccccc2c1/C=N/O,12.2
6,Cn1nc(-c2ccc(S(N)(=O)=O)s2)cc1C(F)(F)F,9.37
7,CC(=O)Nc1ccc(S(=O)(=O)NCC(=O)OCc2cc(=O)oc3ccc4ccccc4c23)cc1,13.7
8,O=C(Nc1ccc(C(F)(F)F)cc1)OC1CN2CCC1CC2 (stereo not shown),-8.69
9,O=C(O)c1c2c(nc3ccc(S(=O)(=O)N4CCC(C(=O)NC5CCCCCC5)CC4)cc13)CCCC2,8.59
10,COc1ccccc1OCC#CCNC1CCCCC1C.O=C(O)C(=O)O (stereo not shown),4.24
11,Cl.Clc1ccc(CNC2CCCC2)cc1,1.03
12,O=C(CSc1ccccc1)Nc1ccc2c(c1)OCCO2,8.08
13,Cc1onc(-c2ccccc2Cl)c1C(=O)Nc1cccc(-c2nc3ncccn3c2C)c1,-38.2
14,CCC(C)[C@H](NC(=O)Nc1ccccc1F)C(=O)OC (stereo partly shown),12.8
15,COc1cc(-c2noc(C3CCCN(C(=O)c4c(F)cccc4F)C3)n2)cc(OC)c1OC (stereo not shown),15.5
16,O=C(O)C1C2CCC(CC2)C1C(=O)N1CCN(Cc2ccc(F)cc2)CC1 (stereo not shown),22.1
17,C=CCn1c(O)c2ccc(C(=O)N=NC(=O)c3ccc(F)cc3)cc2c1O,12.9
18,CC(=O)N(/N=C1\Sc2ccccc2C1=O)c1ccccc1C,-7.05
19,CC(C)CCn1c(CN2CCN(C(=O)c3ccco3)CC2)nc2c1c(=O)n(C)c(=O)n2C,-5.44
20,O=C(O)c1cccc(NC(=O)c2cn(-c3ccccc3)nc2-c2ccc(F)cc2)c1,14.7
21,CCOC(=O)N1CCN(C(=O)c2ccc(NC(=O)c3ccc(C)cc3)cc2)CC1,1.61
22,CCOC(=O)c1sc2cc([N+](=O)[O-])cc(SCC(C)C)c2c1N,13

row,SMILES,"hERG current change (%, negative = inhibition) at 1uM [%]"
1,C[C@@H](NC(=O)c1[nH]cnc1C(=O)Nc1ccccc1)c1ccccc1,15
2,CN(/N=C/c1cc(Cl)cc(Cl)c1O)C(=S)NC(C)(C)C,7.47
3,N#C/C(=C\C1CC=CCC1)c1nc2ccccc2[nH]1 (stereo not shown),-2.32
4,CCN(CC)S(=O)(=O)c1ccc(N2CCOCC2)c(NC(=O)C(=O)c2c(-c3ccccc3)cc3ccccn23)c1,16.1
5,Cc1nn(C)cc1S(=O)(=O)Nc1ncccn1,-5.88
6,CCN(CC)S(=O)(=O)c1ccc(NC(=O)COC(=O)c2c[nH]c(=O)[nH]c2=O)cc1,11.1
7,Cc1c(NC(=O)C(C)Sc2n[nH]c(N)n2)c(=O)n(-c2ccccc2)n1C (stereo not shown),13.3
8,CCOC(=O)c1oc2ccc(/C=N/O)c(Cl)c2c1C,17.2
9,O=C1CCCC/C1=C\Nc1ccccc1C(=O)O,-3.31
10,NC(N)=NS(=O)(=O)c1ccc(N/C=C/C(=O)c2ccc(Cl)c(Cl)c2)cc1,13.4
11,CCOC(=O)c1c(C)n(C)c2ccc(OC)c(NC(=O)c3cccs3)c12,13.3
12,C#CCOc1c(Br)cc(/C=C2/C(=O)ON=C2C)cc1OC,24.9
13,NC(=O)c1ccccc1NC(=O)N1CCOCC1,8.57
14,O=C(Cc1cccs1)NCc1cccc(Cl)c1,9.08
15,CC(C)(C)NC(=O)C(c1ccncc1)N(Cc1ccco1)C(=O)c1ccc(-c2ccccc2)[nH]1 (stereo not shown),7.8
16,O=C1c2cccnc2C(=O)N1Cc1ccc(Cl)cc1,1.82
17,Cc1c(Cl)ccc2sc(N3CCN(C(=O)C4=COCCO4)CC3)nc12,6.27
18,CCN(CC)CCN=Cc1c(O)n(CCC2=CCCCC2)c(=O)[nH]c1=O,-46
19,CCOc1cc(/C=N/Nc2nnc(C)n2N)ccc1O.Cl,14.9
20,CC1(C)SC2c3ccccc3C(=O)N2[C@@H]1C(=O)NC1CCCC1 (stereo partly shown),-2.03
21,Cc1nc(N)ncc1-c1ccc2c(c1)OCO2,14.6
22,CC(C)n1cc(CN2CCCC(C(=O)Nc3cccc(-c4cc5ccccc5[nH]4)c3)C2)cn1 (stereo not shown),1.21
